Source: the GPR68 mutational scans of Howard et al. (2025)
Scores with a large standard error are left out. Two further conditions of the source, in which the scores hardly spread, are not listed. Names with del lack the residues named; names with ins carry added residues between the positions named. For some assays here: The data file names ogerin without a concentration.

B1: GPR68, Q15743 (parent)
chain: MGNITADNSSMSCTIDHTIHQTLAPVVYVTVLVVGFPANCLSLYFGYLQIKARNELGVYLCNLTVADLFYICSLPFWLQYVLQHDNWSHGDLSCQVCGILLYENIYISVGFLCCISVDRYLAVAHPFRFHQFRTLKAAVGVSVVIWAKELLTSIYFLMHEEVIEDENQHRVCFEHYPIQAWQRAINYYRFLVGFLFPICLLLASYQGILRAVRRSHGTQKSRKDQIQRLVLSTVVIFLACFLPYHVLLLVRSVWEASCDFAKGVFNAYHFSLLLTSFNCVADPVLYCFVSETTHRDLARLRGACLAFLTCSRTGRAREAYPLGAPEASGKSGAQGEEPELLTKLHPAFQTPNSPGSGGFPTGRLA

What was measured:
[1] = variants of: B1; experiment: cAMP reporter score (Enrich2 score, wild type = 0); higher = more signal; HEK293T, FACS bins
[2] = variants of: B1; experiment: surface expression score (Enrich2 score, wild type = 0); higher = more signal; HEK293T, FACS bins

Variant | cAMP reporter score ([1]; pH 5.5) | cAMP reporter score ([1]; pH 6) | cAMP reporter score ([1]; pH 6, modulator: ogerin) | cAMP reporter score ([1]; pH 6.5, modulator: ogerin) | surface expression score [2]
MGNITADNSSMSCTIDHTIHQTLAPVVYVTVLVVGFPANCLSLYFGYLQIKARNELGVYLCNLTVADLFYICSLPFWLQYVLQHDNWSHGDLSCQVCGILLYENIYISVGFLCCISVDRYLAVAHPFRFHQFRTLKAAVGVSVVIWAKELLTSIYFLMHEEVIEDENQHRVCFEHYPIQAWQRAINYYRFLVGFLFPICLLLASYQGILRAVRRSHGTQKSRKDQIQRLVLSTVVIFLACFLPYHVLLLVRSVWEASCDFAKGVFNAYHFSLLLTSFNCVADPVLYCFVSETTHRDLARLRGACLAFLTCSRTGRAREAYPLGAPEASGKSGAQGEEPELLTKLDPAFQTPNSPGSGGFPTGRLA [H345D] | -0.403 | -0.747 | -0.753 | -0.376 | 0.619
MGNITADNSSMSCTIDHTIHQTLAPVVYVTVLVVGFPANCLSLYFGYLQIKARNELGVYLCNLTVADLFYICSLPFWLQYVLQHDNWSHGDLSCQVCGILLYENIYISVGFLCCISVDRYLAVAHPFRFHQFRTLKAAVGVSVVIWAKELLTSIYFLMHEEVIEDENQHRVCFEHYPIQAWQRAINYYRFLVGFLFPICLLLASYQGILRAVRRSHGTQKSRKDQIQRLVLSTVVIFLACFLPYHVLLLVRSVWEASCDFAKGVFNAYHFSLLLTSFNCVADPVLYCFVSETTHRDLARLRGACLAFLTCSRTGRAREAYPLGAPEASGKSGAQGEEPELLTKLEPAFQTPNSPGSGGFPTGRLA [H345E] | 0.715 | 0.651 | 0.853 | 1.03 | 1.58
MGNITADNSSMSCTIDHTIHQTLAPVVYVTVLVVGFPANCLSLYFGYLQIKARNELGVYLCNLTVADLFYICSLPFWLQYVLQHDNWSHGDLSCQVCGILLYENIYISVGFLCCISVDRYLAVAHPFRFHQFRTLKAAVGVSVVIWAKELLTSIYFLMHEEVIEDENQHRVCFEHYPIQAWQRAINYYRFLVGFLFPICLLLASYQGILRAVRRSHGTQKSRKDQIQRLVLSTVVIFLACFLPYHVLLLVRSVWEASCDFAKGVFNAYHFSLLLTSFNCVADPVLYCFVSETTHRDLARLRGACLAFLTCSRTGRAREAYPLGAPEASGKSGAQGEEPELLTKLFPAFQTPNSPGSGGFPTGRLA [H345F] | 1.08 | 1.21 | 0.493 | – | –
MGNITADNSSMSCTIDHTIHQTLAPVVYVTVLVVGFPANCLSLYFGYLQIKARNELGVYLCNLTVADLFYICSLPFWLQYVLQHDNWSHGDLSCQVCGILLYENIYISVGFLCCISVDRYLAVAHPFRFHQFRTLKAAVGVSVVIWAKELLTSIYFLMHEEVIEDENQHRVCFEHYPIQAWQRAINYYRFLVGFLFPICLLLASYQGILRAVRRSHGTQKSRKDQIQRLVLSTVVIFLACFLPYHVLLLVRSVWEASCDFAKGVFNAYHFSLLLTSFNCVADPVLYCFVSETTHRDLARLRGACLAFLTCSRTGRAREAYPLGAPEASGKSGAQGEEPELLTKLGPAFQTPNSPGSGGFPTGRLA [H345G] | 0.738 | – | 1.32 | 1.9 | 1.34
